Results from PubChem BioAssay AID1768 (National Center for Advancing Translational Sciences (NCATS), 2009).
The campaign covered roughly 270,000 compounds. About 620 (0.23%) were called active. Calls come from the whole dose curve; as a rule, active = well fitted inhibition curve with a large enough effect in the polarisation, with a control signal flat (not every such curve was filed as active); inconclusive = small, poorly fitted or top-dose-only effect, or effect the other way, or a change in a side signal; inactive = no such curve, though single readings can be large or run the other way; the % refers to the polarisation. The inconclusive results got no clear call from the source. Where the call is inconclusive, the potency comes from a doubtful curve fit. A note “side channel” means that the fit belongs to a control or component signal, not to the main read-out.

biological target: Menin (Homo sapiens) (UniProt O00255); test: qHTS Assay for Inhibitors Targeting the Menin-MLL Interaction in MLL Related Leukemias: Competition With Texas Red Labeled MLL-derived Mutant Peptide; settings: fluorescence polarization; series mostly up to 61.6 µM
Text: qHTS Assay for Inhibitors Targeting the Menin-MLL Interaction in MLL Related Leukemias NIH Chemical Genomics Center [NCGC] NIH Molecular Libraries Probe Centers Network [MLPCN] MLPCN Grant: MH084875-01A1 Assay Submitter (PI): Jolanta Grembecka, Tomasz Cierpicki, University of Virginia Translocations of the MLL (Mixed Lineage Leukemia) gene are frequently found in human leukemias affecting both children and adults. Fusion of MLL to one of more than 60 genes results in generation of oncogenic proteins upregulating Hox genes, which are vital to blood cell development. Patients harboring fusion of the MLL gene suffer from aggressive leukemias and respond poorly to available therapies. All of the oncogenic fusion proteins have a preserved N-terminal fragment of MLL that has been identified to interact with menin. It has been recently discovered that association with menin is critical to the leukemogenic activity of the MLL fusion oncoproteins. Selective targeting of the menin-MLL interaction could provide an attractive therapeutic approach to develop novel drugs for MLL-related leukemias. Small molecules blocking the menin-MLL interaction should reverse the oncogenic potential of MLL fusion proteins. We have developed and optimized a fluorescence polarization-based assay for the identification of Menin-MLL inhibitors. The assay was run employing two different MLL-derived peptides. The present assay uses a 12 amino acid peptide labeled with fluorescein at its N-terminus. This peptide consists of the menin high affinity binding motif from MLL and is potently bound by menin. Another peptide with a mutated sequence, labeled with Texas Red, was used in parallel as a less stringent screen for inhibitors.
The Menin protein, the MLL-wild type (w.t.) derived peptide (N-terminal 12 amino acids), the MLL-derived peptide labeled with Texas Red and the MLL-w.t. peptide labeled with Fluorescein were kindly supplied by laboratory of Dr. Jolanta Grembecka, University of Virginia. All protein and peptide solutions were stored in single use aliquots at -80C. The Eu3+ Cyrptate-conjugated mouse monoclonal antibody anti-6 Histidine (Eu3+-AB) and the Streptavidin-XL665 conjugate (XL665) were purchased from Cisbio International (Bedford, MA). All antibody and XL665 conjugate solution stocks were stored in single use aliquots at -20C. The Buffer components for all assays were purchased from Sigma-Aldrich (St. Louis, MO) and Invitrogen (Carlsbad, CA). FP Assay Reagents: 1. FP reaction buffer: 50 mM Tris-HCl pH 7.5, 50 mM NaCl, 1mM DTT. Before use, 0.05% BSA is added. 2. Menin protein, MLL-w.t. labeled with fluorescein, MLL-mutant peptide labeled with texas red. Stored in singe use aliquots at -80C. 3. MLL-w.t. unlabeled peptide as positive control: 10 uM final in FP buffer. FP Assay Procedure: 1. Prepare Menin at 200 nM, MLL-w.t.-fluorescein at 25 nM, and MLL-mutant-texas red at 50 nM mixture in FP buffer. 2. Prepare Menin at 200 nM, MLL-w.t.-fluorescein at 25 nM, MLL-mutant-texas red at 50 nM, and 10 uM MLL-w.t. unlabeled mixture in FP buffer. 3. Prepare MLL-w.t.-fluorescein at 25 nM and MLL-mutant-texas red at 50 nM mixture in FP buffer. 3. Dispense 4 ul per well of reagent in step 1 in columns 2, 4 - 48 in a black 1536 well plate, dispense 4 ul per well of reagents from steps 2 and 3 in columns 1 and 3 respectively. Incubate plate at ambient for 15 minutes. 4. Transfer 23 nl per well of compound to plate and incubate at ambient for 1 hr. 5. Read fluorescence polarization for each label using the PerkinElmer Envision. Envision protocol for fluorescein: FITC FP Dual Enh Mirror, Excitation filter 480, Emission filter (1) P-pol 535, Emission filter (2) S-pol 535 Envision protocol for texas red: FP Dual Enh Mirror, Excitation filter 555, Emission filter (1) P-pol 632, Emission filter (2) S-pol 632
Potency is the fitted concentration of half-maximal effect; tags give direction and shape of the fitted curve or compound fluorescence and quenching.

Sequence of UniProt O00255 (O00255 whole entry, looked up, the tested form may be a part): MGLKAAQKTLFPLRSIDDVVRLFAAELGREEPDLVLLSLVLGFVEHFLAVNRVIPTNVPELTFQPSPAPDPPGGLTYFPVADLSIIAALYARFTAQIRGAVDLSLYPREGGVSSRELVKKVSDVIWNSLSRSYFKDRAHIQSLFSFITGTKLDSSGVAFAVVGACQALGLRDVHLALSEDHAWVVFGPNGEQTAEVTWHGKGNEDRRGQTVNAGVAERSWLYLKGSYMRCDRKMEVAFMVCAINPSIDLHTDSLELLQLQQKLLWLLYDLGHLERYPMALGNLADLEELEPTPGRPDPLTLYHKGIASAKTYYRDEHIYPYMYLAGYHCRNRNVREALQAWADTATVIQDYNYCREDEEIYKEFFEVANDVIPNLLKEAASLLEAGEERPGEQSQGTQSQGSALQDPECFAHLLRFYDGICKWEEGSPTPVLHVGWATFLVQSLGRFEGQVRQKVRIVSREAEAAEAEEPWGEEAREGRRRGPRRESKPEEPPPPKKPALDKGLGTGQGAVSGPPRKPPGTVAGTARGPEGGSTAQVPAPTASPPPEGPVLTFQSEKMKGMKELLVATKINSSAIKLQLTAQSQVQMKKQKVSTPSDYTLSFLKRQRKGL

Structure (SMILES) | Potency
CS(=O)(=O)C1=NSC2=NC(=O)/C(=C\c3ccc(OC(=O)c4ccco4)c(Br)c3)C(=N)N21 | inconclusive: 31.6 µM [quencher, side channel, partial curve]
COc1cc(/C=C2\C(=N)N3N=C(S(C)(=O)=O)SC3=NC2=O)ccc1OCCOc1ccccc1C | inconclusive: 8.91 µM [quencher, side channel, full curve]
CCCOc1ccc(C2C(C(=O)c3cc4ccccc4o3)=C(O)C(=O)N2c2cc(C)on2)cc1 (stereo unspecified) | inconclusive: 8.91 µM [quencher, side channel, full curve]
Cc1cccc(S(=O)(=O)Nc2nc3ccccc3nc2Nc2cccc(C(=O)O)c2)c1 | inconclusive: 10 µM [quencher, side channel, partial curve]
O=C(Nc1ccc(C(=O)O)cc1)/C(=C\C=C\c1ccccc1)NC(=O)c1cccc(Br)c1 | inconclusive: 5.62 µM [quencher, side channel, partial curve]
O=C(O)c1cc(NC(=O)c2ccc(Br)cc2)cc(NC(=O)c2ccc(Br)cc2)c1 | inconclusive: 10 µM [quencher, side channel, partial curve]
CCc1nnc(NS(=O)(=O)c2ccc(N/C=C(\C=O)c3nc4cc(Cl)ccc4o3)cc2)s1 | inconclusive: 11.2 µM [quencher, side channel, partial curve]
CCOC(=O)C1=C(C)N=c2s/c(=C\c3ccc(OCC(=O)O)c(OC)c3)c(=O)n2C1c1ccc(OC)cc1 (stereo unspecified) | inconclusive: 14.1 µM [quencher, partial curve]
O=C(O)Cn1cc(/C=c2/sc3nc4ccccc4n3c2=O)c2ccccc21 | inconclusive: 17.8 µM [quencher, side channel, partial curve]
Cc1cc(C)cc(-n2cccc2/C=C2/C(=N)N3C(=NC2=O)SN=C3S(C)(=O)=O)c1 | inconclusive: 11.2 µM [quencher, side channel, partial curve]
COc1cc(/C=C2/C(=O)NN(c3ccc(Cl)cc3)C2=O)cc(Br)c1O | inconclusive: 17.8 µM [quencher, side channel, single point]
